# Assay results: the supplement of paper PMC4604168 (melanoma cell lines)
# The other results are listed elsewhere or left out. Many values rest on one well or one pass, so single values are uncertain.
# How the values were obtained:
# Test in all cases: cell count relative to DMSO control; melanoma cells; higher = more viable cells
# Details in all cases: library dose: low library concentration; 72 h
# [1] = test system: MZ2-MEL
# [2] = test system: MeWo
# [3] = test system: RPMI7951
# [4] = test system: RVH-421
# [5] = test system: SkMel28
# [6] = test system: SkMel30
# [7] = test system: SkMel5
# [8] = test system: UACC257
# [9] = test system: UACC62
# 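Note: cell number obtained by counting DAPI-stained nuclei in high-throughput microscope images with image analysis software, screen run in 1,536-well plates.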
Structure (SMILES),cell count [1] [%],cell count [2] [%],cell count [3] [%],cell count [4] [%],cell count [5] [%],cell count [6] [%],cell count [7] [%],cell count [8] [%],cell count [9] [%]
"NCC(=O)Nc1ccc(-n2nc(C(F)(F)F)cc2-c2ccc3c(ccc4ccccc43)c2)cc1 + c1cc(-c2cnn3cc(-c4ccc(OCCN5CCCCC5)cc4)cnc23)ccn1 [Dorsomorphin] (first compound 1 µM, partner dose 0.4 µM)",91.5,55.3,106,89.1,69.9,61.1,91,83,68.4
"OCCn1cc(-c2cnc3nnn(Cc4ccc5ncccc5c4)c3n2)cn1 + CCc1ccc(CCOc2ccc(CC3SC(=O)NC3=O)cc2)nc1 [pioglitazone] (first compound 1 µM, partner dose 2 µM)",96.2,103,87.9,81.2,85.5,95.6,99.9,97.9,93.7
"CN(C)S(=O)(=O)c1ccc2c(c1)/C(=C/c1cc3c([nH]1)CCCC3)C(=O)N2 + Cc1cc([N+](=O)[O-])ccc1NS(=O)(=O)c1cc(Cl)ccc1Cl [FH535] (first compound 0.4 µM, partner dose 1 µM)",92.4,94,90.4,98.1,78.8,111,85,98,84.4
"C[C@]1(c2nc3c(C(N)=O)cccc3[nH]2)CCCN1 [Veliparib] + O=C(Nc1ccccc1)c1cc([N+](=O)[O-])ccc1Cl [GW9662] (first compound 1.4 µM, partner dose 2 µM)",99.7,108,100,96.6,78.3,95,94.5,99.7,71.7
"Cc1nc(Nc2ncc(C(=O)Nc3c(C)cccc3Cl)s2)cc(N2CCN(CCO)CC2)n1 [dasatanib] + CCCCCCCCCCCC1=C(O)C(=O)C=C(O)C1=O [Embelin] (first compound 0.004 µM, partner dose 1.2 µM)",72.5,89.2,64,81.6,71.6,85.2,91.1,105,97.9
"Cc1nc(Nc2ncc(C(=O)Nc3c(C)cccc3Cl)s2)cc(N2CCN(CCO)CC2)n1 [dasatanib] + COC(=O)c1sccc1S(=O)(=O)Nc1ccc(Nc2ccccc2)cc1OC [GSK0660] (first compound 0.004 µM, partner dose 1 µM)",68.7,99.5,73.2,50.2,76.5,71.4,75,73.5,66.3
"Cc1nc(Nc2ncc(C(=O)Nc3c(C)cccc3Cl)s2)cc(N2CCN(CCO)CC2)n1 [dasatanib] + COc1ccc2c(c1)CCC1C2CCC2(C)C(NCCCCCCN3C(=O)C=CC3=O)CCC12 [U73122] (first compound 0.004 µM, partner dose 0.4 µM)",85.4,85.8,64.7,83.9,87.6,78.9,82.8,69.4,82.9
"CN(C)S(=O)(=O)c1ccc2c(c1)/C(=C/c1cc3c([nH]1)CCCC3)C(=O)N2 + COc1ccc(COc2ccc(Cc3cnc(N)nc3N)cc2OC)cc1 [GW2580] (first compound 0.4 µM, partner dose 1 µM)",105,96.4,122,93,89.7,95.7,90.9,98.4,78.5
"CN(C)S(=O)(=O)c1ccc2c(c1)/C(=C/c1cc3c([nH]1)CCCC3)C(=O)N2 + Oc1cc(-c2nc(-c3ccccc3)[nH]c2-c2ccncc2)ccc1Cl [L779450] (first compound 0.4 µM, partner dose 0.2 µM)",87.4,89.3,94.5,72.2,68.3,97.5,93.5,91.6,68
"OCCn1cc(-c2cnc3nnn(Cc4ccc5ncccc5c4)c3n2)cn1 + CCCCCCCCCCCC1=C(O)C(=O)C=C(O)C1=O [Embelin] (first compound 1 µM, partner dose 1.2 µM)",98.6,109,126,80.1,94.1,97,101,104,121
"NC(=O)Nc1cc(-c2cccc(F)c2)sc1C(=O)N[C@H]1CCCNC1 + CCCCCCCCCCCC1=C(O)C(=O)C=C(O)C1=O [Embelin] (first compound 0.02 µM, partner dose 1.2 µM)",102,115,109,89.3,119,121,116,88.8,97.1
"CO[C@@H]1[C@H](N(C)C(=O)c2ccccc2)C[C@H]2O[C@]1(C)n1c3ccccc3c3c4c(c5c6ccccc6n2c5c31)C(=O)NC4 [Midostaurin] + O=C(O)C(=O)Nc1sc2c(c1C(=O)O)CCNC2 [TCS401] (first compound 0.08 µM, partner dose 1.66667 µM)",103,103,84.8,111,95.1,132,88.9,94.5,92
"CN(C)S(=O)(=O)c1ccc2c(c1)/C(=C/c1cc3c([nH]1)CCCC3)C(=O)N2 + CCCCCCCCCCCC1=C(O)C(=O)C=C(O)C1=O [Embelin] (first compound 0.4 µM, partner dose 1.2 µM)",96.8,85.7,89.4,82.7,83.7,100,85.2,79.1,82.1
"OCCn1cc(-c2cnc3nnn(Cc4ccc5ncccc5c4)c3n2)cn1 + Oc1nc(-c2ccc(C(F)(F)F)cc2)nc2c1CSCC2 [XAV939] (first compound 1 µM, partner dose 2 µM)",96.8,108,90.3,104,105,99.2,76.9,110,112
"NC(=O)Nc1cc(-c2cccc(F)c2)sc1C(=O)N[C@H]1CCCNC1 + COc1ccc(COc2ccc(Cc3cnc(N)nc3N)cc2OC)cc1 [GW2580] (first compound 0.02 µM, partner dose 1 µM)",97.7,90.8,95.6,123,112,96.7,100,99.6,94.4
"Cc1nc(Nc2ncc(C(=O)Nc3c(C)cccc3Cl)s2)cc(N2CCN(CCO)CC2)n1 [dasatanib] + CC(C)CCN1c2nc(Nc3cc(F)c(O)c(F)c3)ncc2N(C)C(=O)C1C [BID1870] (first compound 0.004 µM, partner dose 0.2 µM)",82.1,99.4,57.9,109,75.1,91.8,94.9,78.4,77
"C[C@]1(c2nc3c(C(N)=O)cccc3[nH]2)CCCN1 [Veliparib] + Cc1cc([N+](=O)[O-])ccc1NS(=O)(=O)c1cc(Cl)ccc1Cl [FH535] (first compound 1.4 µM, partner dose 1 µM)",90.8,84.7,96.8,84.3,89.4,85.1,84.4,99.4,79.1
"CO[C@@H]1[C@H](N(C)C(=O)c2ccccc2)C[C@H]2O[C@]1(C)n1c3ccccc3c3c4c(c5c6ccccc6n2c5c31)C(=O)NC4 [Midostaurin] + COc1ccc(COc2ccc(Cc3cnc(N)nc3N)cc2OC)cc1 [GW2580] (first compound 0.08 µM, partner dose 1 µM)",92.2,88.8,87.4,108,87.6,103,95.9,77.9,88.8
"C=CCn1c(=O)c2cnc(Nc3ccc(N4CCN(C)CC4)cc3)nc2n1-c1cccc(C(C)(C)O)n1 + CCCCCCCCCCCC1=C(O)C(=O)C=C(O)C1=O [Embelin] (first compound 0.02 µM, partner dose 1.2 µM)",103,104,91.8,104,87.9,104,82.5,69.9,92.1
"OCCn1cc(-c2cnc3nnn(Cc4ccc5ncccc5c4)c3n2)cn1 + Cc1cc([N+](=O)[O-])ccc1NS(=O)(=O)c1cc(Cl)ccc1Cl [FH535] (first compound 1 µM, partner dose 1 µM)",95.7,93.6,101,111,98.5,94.9,95.2,89.2,94.2
"Cc1nc(Nc2ncc(C(=O)Nc3c(C)cccc3Cl)s2)cc(N2CCN(CCO)CC2)n1 [dasatanib] + CCN(CC)CCCCNc1ncc2cc(-c3cc(OC)cc(OC)c3)c(NC(=O)NC(C)(C)C)nc2n1 [PD173074] (first compound 0.004 µM, partner dose 0.1 µM)",71.3,94.2,72.4,61.7,64.1,102,90.4,78.6,81.4
"NCC(=O)Nc1ccc(-n2nc(C(F)(F)F)cc2-c2ccc3c(ccc4ccccc43)c2)cc1 + COC(=O)c1sccc1S(=O)(=O)Nc1ccc(Nc2ccccc2)cc1OC [GSK0660] (first compound 1 µM, partner dose 1 µM)",95,53.4,97.7,97,82.7,60.8,93.1,96,82.3
